# Test results published in PubChem BioAssay AID2147 (National Center for Advancing Translational Sciences (NCATS), 2009).
# About 3,600 (1.6%) of roughly 230,000 compounds were called active. The shares of active, inactive and inconclusive entries below differ from those in the screen. Calls follow the shape of the dose curve; as a rule, active = well fitted inhibition curve with a large enough effect (not every such curve was filed as active); inconclusive = small, poorly fitted or top-dose-only effect, or another doubt; inactive = no such curve, though single readings can be large or run the other way. Potencies beside an inconclusive call are fits to weak or partial responses and may not hold up.
# Target: Lysine-specific demethylase 4E (Homo sapiens) (UniProt B2RXH2)
# Assay: qHTS Assay for Inhibitors of Human Jumonji Domain Containing 2E (JMJD2E)
# Conditions: JMJD2E catalytic domain, FDH-coupled NADH fluorescence (FDH is formaldehyde dehydrogenase); series mostly up to 57.1 µM; activity change, negative = inhibition: at the top concentration
# Also: nearly all actives have a fitted effect of over 50% in size.
# 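For activity change, negative = inhibition in this document: 0% = wells with enzyme and -100% = buffer wells without enzyme.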
# Potency is read from the fitted curve at half-maximal effect; tags tell the direction and shape of the fitted curve.
# Sequence of UniProt B2RXH2 (B2RXH2 whole entry, looked up, the tested form may be a part): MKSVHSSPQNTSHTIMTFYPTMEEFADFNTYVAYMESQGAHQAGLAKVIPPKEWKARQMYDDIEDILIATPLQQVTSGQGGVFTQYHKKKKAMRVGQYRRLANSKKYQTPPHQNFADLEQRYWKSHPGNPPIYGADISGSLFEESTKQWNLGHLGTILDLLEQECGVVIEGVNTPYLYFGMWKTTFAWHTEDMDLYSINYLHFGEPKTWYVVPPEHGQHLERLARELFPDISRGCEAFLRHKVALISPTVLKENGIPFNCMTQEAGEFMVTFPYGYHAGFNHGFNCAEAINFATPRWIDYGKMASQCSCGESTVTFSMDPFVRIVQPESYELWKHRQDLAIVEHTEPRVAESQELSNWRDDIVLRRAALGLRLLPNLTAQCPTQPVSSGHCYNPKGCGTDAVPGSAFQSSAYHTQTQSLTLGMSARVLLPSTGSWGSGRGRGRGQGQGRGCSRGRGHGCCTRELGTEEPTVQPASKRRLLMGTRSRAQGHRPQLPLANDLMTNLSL
SMILES,Potency,"activity change, negative = inhibition"
Cc1ccc(S(=O)(=O)/N=C2/C=C(Sc3ncn[nH]3)C(=O)c3ccccc32)c(C)c1,active: 8.91 µM,–
COc1cc(OC)c(N(C)S(=O)(=O)c2cccc(C(=O)Nc3nnc(C4CC4)s3)c2)cc1Cl,"inconclusive: 28.2 µM [inhibitor, partial curve]",–
O=C(c1cc(F)ccc1F)C1CCCN(C(=O)CCN2CCCCO2)C1 (centres undefined),"inconclusive: 35.5 µM [inhibitor, single point]",–
COc1ccc(N(C)C(=S)Nc2ccc3nc(C)c(C)nc3c2)cc1,"inconclusive: 12.6 µM [inhibitor, partial curve]",–
COc1ccc2c(c1)CC/C(=C\C=C\c1ccccc1)C2=O,"inconclusive: 39.8 µM [inhibitor, single point]",–
COc1cc2cc(C(=O)O)[nH]c2c(OC)c1OC,"inconclusive: 11.2 µM [inhibitor, partial curve]",–
COCC(C)n1c(C)cc(C(=O)CSc2nc3ccccc3c(=O)[nH]2)c1C (centres undefined),"inconclusive: 25.1 µM [inhibitor, single point]",–
CCCC(=O)N1c2ccccc2NC2=C(C(=O)CCC2)C1c1ccc(F)cc1 (centres undefined),"inconclusive: 39.8 µM [inhibitor, single point]",–
Cc1ccc(S(=O)(=O)NC(=O)c2ccccc2)cc1C(C)C,–,inactive: -1.48%
CCNC(=O)CCC(N)C(=O)O (centres undefined),–,inactive: 0.698%
COCc1cc(=O)[nH]c2cc(NC(=O)C3CC3)c(C)cc12,"inconclusive: 8.91 µM [inhibitor, partial curve]",–
COc1cc(C(=O)OCC(=O)c2cc(C)n(C)c2C)cc(NC(=O)c2ccco2)c1OC,"inconclusive: 39.8 µM [inhibitor, single point]",–
CCc1ccc(N2CSC3=C(C#N)C(c4cccs4)CC(=O)N3C2)cc1 (centres undefined),"inconclusive: 17.8 µM [inhibitor, partial curve]",–
CN(C(=O)CSc1nnc(-c2ccncc2)n1-c1ccccc1)C1CCS(=O)(=O)C1 (centres undefined),"inconclusive: 31.6 µM [inhibitor, single point]",–
Cc1[nH]n(-c2ccc(Br)cc2)c(=O)c1C=Nc1ccc(S(=O)(=O)Nc2nccs2)cc1,–,inactive: 17.6%
O=C(N/N=C/c1cn(-c2cccs2)nc1-c1ccccc1)c1ccc(O)cc1,"inconclusive: 28.2 µM [inhibitor, partial curve]",–
C/C(CC(=O)Nc1ccc2c(c1)OCO2)=N\NC(=O)C(c1ccccc1)c1ccccc1,–,inactive: -11.9%
CCOc1ccc2nc(SCC(=O)N3CCCCCC3)c(C#N)cc2c1,"inconclusive: 31.6 µM [inhibitor, partial curve]",–
O=C(CSc1nc(-c2ccc(F)cc2)nc2ccc(F)cc12)Nc1cccc(C(=O)O)c1,"inconclusive: 39.8 µM [inhibitor, single point]",–
N#Cc1nc(-c2ccccc2F)oc1NCCc1ccccn1,"inconclusive: 28.2 µM [inhibitor, partial curve]",–
COc1ccccc1NC(=O)c1ccc(NC(=O)COC(=O)CC(NC(=O)c2ccccc2Cl)c2ccccc2)cc1 (centres undefined),"inconclusive: 39.8 µM [inhibitor, single point]",–
C=CCn1cc(-c2cccc(Cl)c2)cc(C#N)c1=O,"inconclusive: 28.2 µM [inhibitor, partial curve]",–
Cc1cc(/C=N/NC(=O)c2c(Br)cnn2C)c(C)n1-c1cccc(Br)c1,"inconclusive: 39.8 µM [inhibitor, single point]",–

SMILES,Potency,"activity change, negative = inhibition"
Cc1ccc(C)n1-c1nc(=S)[nH][nH]1,"inconclusive: 25.1 µM [inhibitor, single point]",–
Cc1nc2ccccc2nc(C)c1=NOCc1cccc(F)c1,–,inactive: -0.752%
CCSc1cc(C2C(C(=O)OC)=C(C)NC3=C2C(=O)CCC3)c(C)o1 (centres undefined),"inconclusive: 39.8 µM [inhibitor, single point]",–
NC(=S)N/N=C/c1cccc(O)c1O,active: 35.5 µM,–
O=C(NN1C(=O)C2C3C=CC(O3)C2C1=O)c1cccc(O)c1 (centres undefined),–,inactive: -0.818%
Cc1ccc(N2C(=O)C3C(C2=O)C2C=CC3C23CC3)c([N+](=O)[O-])c1 (centres undefined),–,inactive: 6.43%
COc1cccc(-c2nn(-c3ccccc3)cc2CN(C)Cc2c(C)nc3ccccn23)c1,"inconclusive: 31.6 µM [inhibitor, single point]",–
O=C(Nc1nc(-c2ccccn2)cs1)C12CC3CC(CC(O)(C3)C1)C2,"inconclusive: 11.2 µM [inhibitor, partial curve]",–
Cc1sc2ncnc(NCC3CCCO3)c2c1C (centres undefined),–,inactive: -9.59%
COC(=O)c1scc(C)c1N/N=C(\C)c1ccc(F)cc1,"inconclusive: 28.2 µM [inhibitor, partial curve]",–
CNC(=O)c1ccc(NC(=O)/C=C/c2cccc(F)c2)cc1,"inconclusive: 39.8 µM [inhibitor, single point]",–
O=C(CSc1cc([N+](=O)[O-])cc(S(=O)(=O)Cc2ccccc2)c1)NC1CC1,"inconclusive: 39.8 µM [inhibitor, single point]",–
Cc1cccn2c(=O)c(/C=C(\C#N)C(=O)NC3CCS(=O)(=O)C3)c(N3CCC(C(N)=O)CC3)nc12 (centres undefined),"inconclusive: 6.31 µM [inhibitor, single point]",–
COCCCNc1nc2c(-c3cccc(C(F)(F)F)c3)nnn2c2ccccc12,"inconclusive: 12.6 µM [inhibitor, partial curve]",–
CCn1c(C)c(C(C)=O)c(N2CCN(C(c3ccccc3)c3ccccc3)CC2)nc1=S,–,inactive: 8.75%
CCCc1cc(=O)[nH]c(SCc2cc(=O)oc3cc(C)c(C(C)C)cc23)n1,"inconclusive: 25.1 µM [inhibitor, single point]",–
Cc1cc(Nc2ccccc2Br)n2nc(C)nc2n1,–,inactive: -4.35%
Cc1ccc(C(=O)ONc2ccc(N=NC(=O)c3ccccc3O)cc2)cc1,"inconclusive: 12.6 µM [inhibitor, partial curve]",–
Cn1ncc2c(NNC(=O)C3CCCCC3)ncnc21,–,inactive: 0.787%
CN(C(=O)COC(=O)c1ccc(Cl)cc1N)C1CCCCC1,"inconclusive: 28.2 µM [inhibitor, partial curve]",–
S=c1[nH]nc([C@@H]2C[C@H]2c2ccccc2)n1-c1ccccc1,–,inactive: -16.7%
C=CCNC(=O)c1ccc(Cn2c(=S)[nH]c3cc4c(cc3c2=O)OCO4)cc1,–,inactive: 8.19%
Cc1nc(SCC(=O)NC(=O)NC(C)(C)C)nc(C)c1C,–,inactive: -2.6%

SMILES,Potency,"activity change, negative = inhibition"
Cc1[nH]c2ccc(-c3nnc(SCC(=O)N4CCCc5ccccc54)o3)cc2c1C,"inconclusive: 5.62 µM [inhibitor, single point]",–
c1ccc(CN2CCN(Cc3cn4cccnc4n3)CC2)cc1,"inconclusive: 28.2 µM [inhibitor, partial curve]",–
Cc1nn(-c2cc(C)c3ccccc3n2)c2c1CCC2,"inconclusive: 39.8 µM [inhibitor, single point]",–
CSc1ccc(-c2c(C#N)c(N)nc3c2c(C)nn3-c2ccccc2)cc1,"inconclusive: 31.6 µM [inhibitor, partial curve]",–
Cc1cccc(-n2c(C)cc(/C=C3\NC(=O)NC3=O)c2C)c1,"inconclusive: 14.1 µM [inhibitor, partial curve]",–
c1ccc2c(c1)CCN(c1ncnc3nc[nH]c13)C2,–,inactive: 1.64%
N#Cc1c(C(F)(F)F)cc(-c2cccs2)nc1N1CCCCC1,"inconclusive: 8.91 µM [inhibitor, partial curve]",–
CC1CCCC(C)N1Cc1cn2ccccc2n1 (centres undefined),"inconclusive: 35.5 µM [inhibitor, single point]",–
Cc1cc(=O)oc2cc(OCC(=O)N3CCc4ccccc4C3)ccc12,"inconclusive: 31.6 µM [inhibitor, partial curve]",–
CCn1c2ccccc2c2cc(NC(=O)C/C(C)=N/NC(=O)c3ccccc3N)ccc21,"inconclusive: 31.6 µM [inhibitor, partial curve]",–
CCOc1ccc2cc(C3CC(c4ccco4)=NN3S(C)(=O)=O)c(=O)[nH]c2c1 (centres undefined),"inconclusive: 39.8 µM [inhibitor, single point]",–
C=C(C)COc1ccc(-c2n[nH]c(C)c2-c2ccccc2)c(O)c1,"inconclusive: 39.8 µM [inhibitor, single point]",–
O=C1CCC(=O)c2oc3ccccc3c2N1,"inconclusive: 39.8 µM [inhibitor, single point]",–
Cc1oc2cc(O)ccc2c(=O)c1Oc1ccccc1Br,"inconclusive: 25.1 µM [inhibitor, partial curve]",–
O=C(Cc1c(F)cccc1Cl)N1CCOCC1,"inconclusive: 39.8 µM [inhibitor, single point]",–
Cc1cc(CNC(=O)COc2c(F)c(F)cc(F)c2F)c2ccccc2n1,"inconclusive: 39.8 µM [inhibitor, single point]",–
CCn1cc(C(=O)OCC(=O)c2cc(C)n(-c3ccc(OC(F)F)cc3)c2C)c(=O)c2ccc(C)nc21,–,inactive: -3%
O=S(=O)(c1cnc(Cl)c(Cl)c1)N1CCc2ccccc21,–,inactive: -5.1%
CC(C)CCSc1nc(N)c(C#N)cc1C#N,"inconclusive: 31.6 µM [inhibitor, partial curve]",–
Cc1ccc(-c2ccccc2NC(=O)CCl)o1,"inconclusive: 28.2 µM [inhibitor, partial curve]",–
CS/C(N)=N/N=C/c1ccc([N+](=O)[O-])cc1,"inconclusive: 28.2 µM [inhibitor, single point]",–
CCC(O)C1CCN(Cc2cn(-c3ccc(OC)cc3)nc2-c2cccc(F)c2)CC1 (centres undefined),"inconclusive: 28.2 µM [inhibitor, partial curve]",–
O=C(O)c1ccccc1SC1CC(=O)N(c2cccc3ccccc23)C1=O (centres undefined),"inconclusive: 20 µM [inhibitor, partial curve]",–
